Reference: the supplement of paper PMC3334620
Over roughly 33,000 sequences, “E-score (-0.5 to 0.5)” has its median near -0.054; the highest 2% begin near 0.35. Some of the results follow.

The sequences below were run against T1, Stb5 (UniProt P38699) (assay: PBM E-score (8-mer binding enrichment) (E-score (-0.5 to 0.5)); higher = stronger / more preferred TF binding; most listed sequences are background and not binding sites). Settings: protein concentration: 200 nM; construct: GST-full length.
T1 sequence: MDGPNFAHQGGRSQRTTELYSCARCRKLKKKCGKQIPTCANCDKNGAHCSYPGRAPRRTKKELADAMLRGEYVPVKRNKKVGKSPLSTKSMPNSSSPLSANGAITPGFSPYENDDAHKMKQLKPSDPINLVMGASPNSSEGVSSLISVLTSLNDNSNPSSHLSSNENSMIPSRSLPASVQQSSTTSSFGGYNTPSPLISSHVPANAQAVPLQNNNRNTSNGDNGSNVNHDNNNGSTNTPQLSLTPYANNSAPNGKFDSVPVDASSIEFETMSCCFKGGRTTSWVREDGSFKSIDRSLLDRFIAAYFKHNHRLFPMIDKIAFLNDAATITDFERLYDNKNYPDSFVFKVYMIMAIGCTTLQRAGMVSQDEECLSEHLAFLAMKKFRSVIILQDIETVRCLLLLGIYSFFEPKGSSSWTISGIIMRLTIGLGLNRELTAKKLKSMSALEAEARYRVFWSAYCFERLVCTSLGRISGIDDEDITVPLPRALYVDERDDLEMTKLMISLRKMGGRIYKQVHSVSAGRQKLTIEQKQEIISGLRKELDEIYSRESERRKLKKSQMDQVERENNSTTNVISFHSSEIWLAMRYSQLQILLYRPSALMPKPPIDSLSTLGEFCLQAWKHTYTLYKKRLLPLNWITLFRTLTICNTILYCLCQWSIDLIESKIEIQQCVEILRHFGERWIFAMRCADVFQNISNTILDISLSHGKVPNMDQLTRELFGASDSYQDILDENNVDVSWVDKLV
Procedure, shortened: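 Yeast transcription factors carrying a GST tag, as full-length proteins or DNA-binding domains, were produced by PURExpress in vitro transcription/translation. About 100-200 nM protein was applied to universal all-10-mer Agilent arrays, double-stranded by primer extension on fresh or once-stripped slides. Bound protein was detected with fluorescent anti-GST, and scans were normalised with masliner. The Universal PBM Analysis Suite gave each ungapped eight-base word, pooled with its reverse complement, an E-score, a modified Wilcoxon-Mann-Whitney statistic.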

Sequence | PBM E-score
GTTATCAA | -0.23
GCGACGTA | -0.0805
ACCGCGAA | 0.326
CATACCCC | 0.235
CCAATAAC | -0.0267
ATCTAGAC | -0.154
CTCGAAGA | -0.213
GACTTCCA | -0.177
CATCTCAA | -0.158
GTCTGAGA | -0.148
AAATCTCA | -0.261
CAGAATAC | 0.0376
TGACCGCA | 0.236
CCCCGCAC | 0.236
AATGTAAC | -0.0255
AGCAAATC | -0.135
GGAGAGGA | -0.264
TAAATGTA | -0.239
GAGGGTTA | -0.303
AGGGTCAC | -0.193
CCAATCCG | 0.0719
AGATGTTA | 0.0114
TGAATTCA | 0.0863
GGACATCA | -0.065
AAAAAGTT | -0.194

Sequence | PBM E-score
AAACGCCT | -0.156
CAGATACG | 0.112
AGATATGA | -0.0199
GATCGTGA | -0.0215
CCACGTCA | -0.177
CGCTCAGC | -0.0124
CGAGTGAA | 0.00984
CGTCTGCA | -0.0669
GAAATGTA | -0.0161
TTGCCCAA | -0.115
GTCGAGAC | -0.0911
CGAGCGAA | -0.0711
CGTCGTAG | 0.0958
CTGAACTA | -0.0792
GGCGAGAA | -0.0862
CCTTGACC | 0.103
AGTCCGTG | 0.282
AACTCATG | -0.163
GAGGGTCC | 0.0444
ACGGCACG | 0.0824
TACTCACA | -0.284
CGTATGTA | -0.0286
AATTGCAG | -0.106
ACCCAGCC | -0.351
GCGCCGAA | 0.334

Sequence | PBM E-score
CATGATCC | 0.15
GGCGGTCA | 0.342
TAGTTAAA | 0.14
CCTACCTA | -0.151
AAAGCCGA | 0.341
CCGTGGGA | -0.0115
CAGAGCCC | -0.126
AGCTAAGA | -0.0255
GAGTCAAA | 0.0696
ACTGTTGC | -0.0489
GCCGACCC | 0.267
ACGTCATC | -0.115
CATTCTCG | -0.0441
CCATGGGC | -0.0701
ATTGATAC | 0.0533
CACATAAA | 0.163
CAACACTC | -0.0258
GGTGTGAC | 0.167
GCCGTGTA | 0.0589
CGCCCATA | 0.139
TAGTCAGA | -0.116
ACCTCTAA | 0.115
AGGCTGGG | -0.313
CGATATTC | 0.192
AATACATG | -0.044

Sequence | PBM E-score
ACGACCAG | -0.164
TGTATTAA | -0.0825
CTGTGGTC | -0.0894
AGCATTAA | -0.212
ACGCGCGC | 0.0521
AAACCCCA | 0.0234
CTATCAGA | 0.00467
CGTCGTCA | -0.025
TCGAACCA | -0.173
GCTCGTAC | -0.0915
GGCGGTTA | 0.158
ACCGATTC | 0.216
GCAAGAGA | -0.214
AGTCAGGC | -0.0565
CATCTGAA | -0.109
GAATCATC | -0.0556
CGAAACTC | -0.0284
ATAGACTG | 0.0118
AGCAGGAA | -0.185
CCGGAACG | 0.27
AAGGATCT | -0.117
CTGTGATA | -0.0353
ATCCGAAT | 0.0966
GGCAGGTA | 0.0611
CCAAGGTA | -0.11

Sequence | PBM E-score
AAAGACTC | -0.273
GTGTTAAA | 0.156
ATATTAGA | 0.0346
CCATGCCG | 0.143
AAAGGAGA | -0.251
GGAAGCGA | -0.128
GCTTGACC | -0.131
ACCGGCTA | 0.129
AAGGATAA | -0.0984
AGAAACGC | 0.0789
ATGTCCGG | 0.415
GTAGTAAA | -0.0283
ACAACTAC | -0.00065
GGGGCCTA | 0.0337
CTATCAAG | -0.0706
GTCTTCAC | 0.101
GTCTTCCA | -0.125
ACGATAAT | -0.136
ATAATTAC | 0.0224
ACATAATG | 0.0577
GCACGTAA | -0.081
CGCTATAG | 0.174
ATCCGCAG | 0.166
AAGGACAG | -0.117
ATATCGTA | -0.114

Sequence | PBM E-score
GTTAGGTA | -0.0283
CTGCGAAC | -0.191
AGATATAC | -0.149
AATGGAGG | 0.0485
ATAGAGCC | 0.241
GCGACGGA | 0.283
ACAGGAGG | -0.144
ATATTACA | 0.195
AGTCTAGC | -0.0681
GACATCCC | -0.047
AATATAAA | 0.214
GAATCGTC | -0.15
CGGTTGGC | 0.169
CTTGGTAA | -0.0416
GGCAGAAC | 0.0797
ATTCGAGG | 0.0182
CTCAACAA | -0.108
GATCCTAA | -0.0694
ATCTTTGG | -0.125
CCAGAGGG | -0.0691
ATGTACAT | -0.0772
TTGGACAA | -0.195
AGCCGTCA | 0.0565
CGTACCAG | -0.0285
AGCCACGG | 0.0832

Sequence | PBM E-score
AACCATGG | -0.196
ATGGTAAT | 0.00872
AGATCGTA | -0.172
CAGTGCAG | -0.237
CGTAGCCA | -0.104
ACGCACGC | 0.108
CTAGGTGA | -0.0859
GCGCTTGA | -0.189
ACTGAAGG | -0.139
AAACCTGA | -0.191
CAGACTTC | -0.302
AGCACGCC | -0.103
AGGAGGTA | -0.0118
GCAGACAA | -0.195
GGTCCAAA | 0.117
ATTTTAGA | 0.0209
AGACCCAC | -0.0564
ATGGGTTA | -0.227
GGCCCGAA | 0.149
AGAGAGAT | -0.183
CCGCTTCA | 0.229
AGATATGG | -0.151
CCTGTAAA | -0.202
CCCTGAAA | -0.175
AAAGCCAA | -0.169

Sequence | PBM E-score
CGCGAAGA | 0.114
AGTTTCCC | -0.0973
ACTTTTAA | -0.0188
CCACGAGC | 0.00014
GATCGGGC | 0.301
ACCGCGCT | 0.338
ACTGCGGA | 0.17
CCGACTGC | 0.248
ATCTGCAA | -0.324
ACTCAGCT | -0.164
AGGAACGA | -0.012
ACTCTCGC | -0.0859
AGAGACGC | 0.0892
CGGTTGAA | 0.104
GCTATGCA | -0.233
AGTGGAGG | -0.0503
ACATGCGG | 0.145
ATCGGAGG | 0.181
ATTCTCAC | -0.0802
GTACAGGA | 0.12
ACTGTAAT | -0.0979
ACGCCGTG | 0.297
ATCTACTC | -0.116
CTAGAGCA | -0.188
CATGTTAA | -0.0547

Sequence | PBM E-score
ATTAGGCC | 0.193
ATCCCGAG | 0.161
GAGGAATA | 0.00092
GGGCGACA | -0.0122
AATCATCG | 0.0623
GCCGCGAC | 0.171
TAGAATGA | -0.208
GTACTACA | -0.137
ACTTTTTG | -0.21
ACCAGTCC | -0.0506
AGCTACTA | -0.162
CACTTGAC | -0.0826
GACTTATC | 0.0388
CGGTCCAC | 0.0803
GGGCACGA | -0.144
AAGAGCCG | 0.308
GCCCCGGC | 0.224
CTTCTTTC | -0.178
GCGCGAGA | 0.00096
